Assay results taken from a collection of fitness landscapes (doi:10.1016/j.celrep.2020.107928).
Whole data set: some 81,000 sequences, median “one-hybrid fitness for binding parS DNA” near -0.17, cut for the highest 2% near 0.51. The list shows a part of the results.

B1: Caulobacter ParB omega fusion; a variant is named by its letters at X, in order, B8GW30 (parent)
chain: MESVVVGEPGMSEGRRGLGRGLSALLGEVDAAPAQAPGEQLGGSREAPIEILQRNPDQPRRTFREEDLEDLSNSIREKGVLQPILVRPSPDTAGEYQIVAGERAWRAAQRAGLKTVPIMVRELDDLAVLEIGIIENVQRADLNVLEEALSYKVLMEKFERTQENIAQTIGKSXSHVANXMRLLXLPDEVQSYLVSGELTAXHARAIAAAADPVALAKQIIEGGLSVRETEALARKAPNLSAGKSKGGRPPRVKDTDTQALESDLSSVLGLDVSIDHRGSTGTLTITYATLEQLDDLCNRLTRGI

Variants of: B1
Assay: one-hybrid fitness for binding parS DNA (scaled: cognate 1, non-cognate 0); higher = stronger binding
Conditions: with parS DNA site
How it was run: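 In E. coli USO, a HIS3 reporter with its site placed 19 bp from the promoter was used to select Caulobacter ParB variants randomised at four specificity codons. Growth lasted 48 hours at 37°C on histidine-free M9 containing 0.1 mM IPTG and 5 mM 3-AT. Fitness was taken as the log change in variant-to-wild-type read ratio from Illumina sequencing of pre- and post-selection plasmids, rescaled between the non-cognate and cognate sites.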

Row | Variant | one-hybrid fitness for binding parS DNA
1 | PQCS | ≤ 0.2
2 | NIPT | ≤ 0.2
3 | VCQV | ≤ 0.2
4 | ISSR | ≤ 0.2
5 | RCWC | 0.959
6 | QTRF | ≤ 0.2
7 | IHKR | ≤ 0.2
8 | WMMG | ≤ 0.2
9 | LFWV | ≤ 0.2
10 | HCPR | ≤ 0.2
11 | GHSL | ≤ 0.2
12 | RSPM | ≤ 0.2
13 | CDVG | ≤ 0.2
14 | MGHS | ≤ 0.2
15 | LGMT | ≤ 0.2
16 | HCET | ≤ 0.2
17 | TWYY | ≤ 0.2
18 | LAET | ≤ 0.2
19 | AYMT | ≤ 0.2
20 | RHGG | 0.939
21 | RPHK | ≤ 0.2
22 | QYMP | ≤ 0.2
23 | RCMH | 0.242
24 | QECR | ≤ 0.2
25 | KVTG | ≤ 0.2
26 | LFCG | ≤ 0.2

Row | Variant | one-hybrid fitness for binding parS DNA
27 | QLMR | ≤ 0.2
28 | HFRP | ≤ 0.2
29 | STHF | ≤ 0.2
30 | SDVR | ≤ 0.2
31 | LPGT | ≤ 0.2
32 | TRPL | ≤ 0.2
33 | VRTA | ≤ 0.2
34 | KSIM | ≤ 0.2
35 | ISSS | ≤ 0.2
36 | KYVN | ≤ 0.2
37 | WYPC | ≤ 0.2
38 | SYKV | ≤ 0.2
39 | DRAA | ≤ 0.2
40 | NSDL | ≤ 0.2
41 | LAPS | ≤ 0.2
42 | YSYN | ≤ 0.2
43 | SQPF | ≤ 0.2
44 | IVRC | ≤ 0.2
45 | NVPA | ≤ 0.2
46 | LGTT | ≤ 0.2
47 | ASYF | ≤ 0.2
48 | FRTG | ≤ 0.2
49 | RHYN | 0.448
50 | EYIR | ≤ 0.2
51 | PLKF | ≤ 0.2
52 | YQSS | ≤ 0.2

Row | Variant | one-hybrid fitness for binding parS DNA
53 | FLSV | ≤ 0.2
54 | FCKC | ≤ 0.2
55 | PMYQ | ≤ 0.2
56 | LIMV | ≤ 0.2
57 | QWQR | ≤ 0.2
58 | ERAC | ≤ 0.2
59 | KIHT | ≤ 0.2
60 | YDNL | ≤ 0.2
61 | ITYT | ≤ 0.2
62 | ERRK | ≤ 0.2
63 | QVQQ | ≤ 0.2
64 | IKGR | ≤ 0.2
65 | RVTW | ≤ 0.2
66 | CRPH | ≤ 0.2
67 | SPVR | ≤ 0.2
68 | SAWA | ≤ 0.2
69 | PMWG | ≤ 0.2
70 | ANVA | ≤ 0.2
71 | RGAG | 0.661
72 | TLGR | ≤ 0.2
73 | PHNK | ≤ 0.2
74 | VTDR | ≤ 0.2
75 | SHMS | ≤ 0.2
76 | ACNT | ≤ 0.2
77 | QIQI | ≤ 0.2
78 | NACS | ≤ 0.2

Row | Variant | one-hybrid fitness for binding parS DNA
79 | VMYT | 0.293
80 | RPSF | ≤ 0.2
81 | SYKT | ≤ 0.2
82 | LLYG | ≤ 0.2
83 | WNKA | ≤ 0.2
84 | DMKT | ≤ 0.2
85 | ACCL | ≤ 0.2
86 | RGKN | 0.369
87 | SSEK | ≤ 0.2
88 | AHCG | ≤ 0.2
89 | TESH | ≤ 0.2
90 | CNNN | ≤ 0.2
91 | KSEL | ≤ 0.2
92 | NKYT | ≤ 0.2
93 | FDPT | ≤ 0.2
94 | VCWS | ≤ 0.2
95 | FHTS | ≤ 0.2
96 | PYYA | ≤ 0.2
97 | WGCF | ≤ 0.2
98 | DCAS | ≤ 0.2
99 | HFSW | ≤ 0.2
100 | TTCF | ≤ 0.2
101 | QMFF | ≤ 0.2
102 | SKQY | ≤ 0.2
103 | RLWR | ≤ 0.2
104 | RCKK | ≤ 0.2

Row | Variant | one-hybrid fitness for binding parS DNA
105 | CLTL | ≤ 0.2
106 | STMT | ≤ 0.2
107 | LRMR | ≤ 0.2
108 | VDDV | ≤ 0.2
109 | PQWD | ≤ 0.2
110 | VDGG | ≤ 0.2
111 | AFQS | ≤ 0.2
112 | YSII | ≤ 0.2
113 | GFNV | ≤ 0.2
114 | AYRP | ≤ 0.2
115 | EYTC | ≤ 0.2
116 | PVSN | ≤ 0.2
117 | TRSN | ≤ 0.2
118 | TIMC | ≤ 0.2
119 | ARNF | ≤ 0.2
120 | LMFF | ≤ 0.2
121 | RFCF | ≤ 0.2
122 | RLVC | 0.962
123 | IYIS | ≤ 0.2
124 | WWTR | ≤ 0.2
125 | LLQA | ≤ 0.2
126 | IFAI | ≤ 0.2
127 | SMFT | ≤ 0.2
128 | PQSD | ≤ 0.2
129 | GSNK | ≤ 0.2
130 | SAQR | ≤ 0.2

Row | Variant | one-hybrid fitness for binding parS DNA
131 | FDGW | ≤ 0.2
132 | FFHT | ≤ 0.2
133 | FKLG | ≤ 0.2
134 | CGYV | ≤ 0.2
135 | CVGN | ≤ 0.2
136 | PNCQ | ≤ 0.2
137 | KRYM | ≤ 0.2
138 | MSHL | ≤ 0.2
139 | PRVK | ≤ 0.2
140 | SLWR | ≤ 0.2
141 | TCTK | ≤ 0.2
142 | IVEG | ≤ 0.2
143 | LKFV | ≤ 0.2
144 | HMCT | ≤ 0.2
145 | SLRN | ≤ 0.2
146 | CYNS | ≤ 0.2
147 | HDCW | ≤ 0.2
148 | ALNA | ≤ 0.2
149 | SVEC | ≤ 0.2
150 | VTLG | ≤ 0.2
151 | ALGW | ≤ 0.2
152 | LCMK | ≤ 0.2
153 | RCYM | 0.369
